# Screen size: about 410,000 compounds; about 6,400 (1.6%) were called active. The inconclusive results got no clear call from the source; some entries with a clear call stand among them for comparison. The call rests on the fitted dose curve; in most records, active means well fitted inhibition curve with a large enough effect; inconclusive means small, poorly fitted or top-dose-only effect; inactive means no such curve, though single readings can be large or run the other way. Where the call is inconclusive, the potency comes from a doubtful curve fit.
# Target: Glucagon-like peptide 1 receptor (Homo sapiens) (UniProt P43220)
# Experiment: qHTS of GLP-1 Receptor Inverse Agonists (Inhibition Mode); further: nearly all actives have a fitted effect of over 55% in size
# Conditions: HEK293 GLP-1R CRE-luciferase, luminescence, 24 h, GLP-1R form is constitutively active; activity change, negative = inhibition: at 38.3 µM (top of the series) unless noted
# Procedure, shortened: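 Cells are plated, allowed 12 hours at 37 deg C, then treated with compounds for 24 hr before luciferase detection reagent is added and luminescence is read after 12 min at room temperature. The HEK293 line carries constitutively active GLP-1R with a cAMP-responsive reporter.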
# On the % scale 0 is the no-effect control and ±100 the full control effect; potency means the concentration at half of the fitted maximal effect; tags describe the fitted curve by direction and shape.
# Sequence of UniProt P43220 (P43220 whole entry, looked up): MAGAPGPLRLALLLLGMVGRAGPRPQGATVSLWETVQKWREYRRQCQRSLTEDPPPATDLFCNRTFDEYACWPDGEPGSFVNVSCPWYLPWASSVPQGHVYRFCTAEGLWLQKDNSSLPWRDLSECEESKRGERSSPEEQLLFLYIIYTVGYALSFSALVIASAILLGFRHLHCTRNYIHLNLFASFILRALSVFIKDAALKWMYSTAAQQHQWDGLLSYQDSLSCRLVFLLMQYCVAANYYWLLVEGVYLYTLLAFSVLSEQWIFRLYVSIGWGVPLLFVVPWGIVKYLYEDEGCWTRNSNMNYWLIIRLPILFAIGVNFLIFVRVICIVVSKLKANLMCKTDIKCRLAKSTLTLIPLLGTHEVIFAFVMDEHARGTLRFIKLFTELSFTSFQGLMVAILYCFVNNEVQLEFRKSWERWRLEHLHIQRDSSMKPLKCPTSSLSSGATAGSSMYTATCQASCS
Structure (SMILES),Potency,"activity change, negative = inhibition"
Cc1c(Cl)cccc1NC(=O)Nc1cc(C(C)(C)C)on1,"inconclusive: 14.1 µM [inhibitor, partial curve, poor fit]",–
CCOc1cc(C(=O)N2CCC3(CC2)NCCc2[nH]cnc23)cc(OCC)c1OCC,inactive,–
Cc1ccc(C)c(S(=O)(=O)N2CCCCC2CCNC(=O)C(=O)NCCc2ccco2)c1 (stereo unspecified),"inconclusive: 28.2 µM [inhibitor, single point]",–
Cc1ccc2oc(=O)c3cnn(CC(=O)N(C)c4ccc(F)cc4)c3c2c1,inactive,–
CN(C)c1nc(=NCc2cccs2)ss1,"inconclusive: 0.501 µM [inhibitor, full curve, poor fit]",–
Cc1sc(NC(=O)CN(C(=O)c2ccccc2F)C2CCCC2)c(C(N)=O)c1C,"inconclusive: 11.2 µM [inhibitor, partial curve, poor fit]",–
COc1ccc(Nc2ccc3cc(S(=O)(=O)N4CCCC4)ccc3n2)cc1Cl,"inconclusive: 28.2 µM [inhibitor, single point]",–
C=CCC[C@H](Cc1ccc(F)cc1)C(=O)OC[C@@H](Cc1c[nH]c2ccccc12)NC(=O)[C@H](CC=C)CC(=O)NCCO,"inconclusive: 14.1 µM [inhibitor, partial curve, poor fit]",–
CC(Oc1ccc(Cl)cc1)C(=O)NCCN1C(=O)S/C(=C\c2cccnc2)C1=O (stereo unspecified),"inconclusive: 28.2 µM [inhibitor, single point]",–
Cc1cccc(N(C)C(=O)C(Cc2ccccc2)NS(=O)(=O)c2cccc3nsnc23)c1 (stereo unspecified),inactive,–
O=C(CN1Cc2ccccc2C1=O)Nc1cc(F)ccc1F,inactive,–
Cc1cc(C)c(S(=O)(=O)N2CCCC2CNC(=O)c2ccc3c(c2)OCO3)c(C)c1 (stereo unspecified),"inconclusive: 12.6 µM [inhibitor, single point]",–
CCc1ccc(CN(C)C(=O)c2cc(COc3ccc(OC)cc3Cl)on2)nc1,"inconclusive: 11.2 µM [inhibitor, single point]",–
C#CCN1CCc2onc(-c3ccc(Br)cc3)c2C1=O,"inconclusive: 28.2 µM [inhibitor, single point]",–
COC(=O)Cc1c(C)c2ccc(O)c(CN3CCCC(C)C3)c2oc1=O (stereo unspecified),inactive,–
Cn1c(CSCc2ccc(Cl)c(Cl)c2)nnc1SCC(=O)Nc1nccs1,"inconclusive: 1.58 µM [inhibitor, partial curve, poor fit]",–
CCc1ccc(NC(=O)CNS(=O)(=O)c2c(C)noc2C)cc1,"inconclusive: 12.6 µM [inhibitor, partial curve]",–
Cc1ccc(O)c(-c2cc(-c3cccc(Br)c3)n[nH]2)c1,active: 10 µM,–
OC(c1ccc(Cl)c(F)c1)c1ncc(-c2ccccc2Cl)[nH]1 (stereo unspecified),inactive,–
c1ccc(Nc2nc(N3CCCCC3)nc(N3CCNCC3)n2)cc1,"inconclusive: 2 µM [inhibitor, partial curve, poor fit]",–
Cc1ccc(NC(=O)COc2ccc3oc4c(c3c2)CCCC4)c(C)c1,inactive,–
CCCCN(C/C=C/c1ccccc1OC)Cc1ccccc1,"inconclusive: 10 µM [inhibitor, partial curve, poor fit]",–

Structure (SMILES),Potency,"activity change, negative = inhibition"
COc1cc(NCCC(=O)c2cccs2)c(OC)cc1Cl,inactive,–
CN(C)c1ccc(-c2nc(-c3ccccn3)no2)cc1[N+](=O)[O-],"inconclusive: 1.58 µM [inhibitor, partial curve, poor fit]",–
OCc1ccnc2c(O)cccc12,active: 8.91 µM,–
Cc1cccc(C)c1NC(=O)CSc1nnc(-c2ccoc2C)n1CCc1ccccc1,"inconclusive: 1.78 µM [inhibitor, partial curve, poor fit]",–
Cc1sc2nc(CN(C(=O)NCc3ccccc3)C3CCCC3)[nH]c(=O)c2c1C,"inconclusive: 8.91 µM [inhibitor, partial curve]",–
CCCc1ccc(Oc2c(-c3ccc(O)c(C)c3O)n[nH]c2C)cc1,"inconclusive: 28.2 µM [inhibitor, single point]",–
COc1cccc(CN(C)CC(=O)Nc2ccccc2C(C)C)c1,–,inconclusive: -31.4% [inhibitor] [at 7.66 µM]
COCCn1c(C)cc(C(=O)COC(=O)Cc2n[nH]c(=O)c3ccccc23)c1C,inactive,–
COc1ccc2[nH]cc(/C=C(/C#N)S(=O)(=O)c3ccccc3)c2c1,"inconclusive: 10 µM [inhibitor, single point]",–
COc1ccc(Cn2c(=O)[nH]c3cc(C(=O)Nc4ccc(N5CCN(C)CC5)cc4)ccc32)cc1,"inconclusive: 10 µM [inhibitor, partial curve]",–
O=c1c2cc(N3CCOCC3)ccc2[nH]c(=S)n1Cc1ccccc1Cl,"inconclusive: 3.16 µM [inhibitor, full curve]",–
C=CCC1(C(=O)N(C)Cc2ccccc2)CCN(C(=O)OC(C)(C)C)CC1,"inconclusive: 10 µM [inhibitor, partial curve, poor fit]",–
COc1ccc(N(CC(=O)Nc2ccccc2C(=O)NCc2ccco2)S(C)(=O)=O)cc1,inactive,–
COc1ccccc1N1CCN(Cc2ccc(-c3ccccc3[N+](=O)[O-])o2)CC1,"inconclusive: 7.08 µM [inhibitor, partial curve, poor fit]",–
CC1(C(=O)NS(=O)(=O)c2cccc(Cl)c2)CCN1C(=O)Cc1ccc(Cl)cc1Cl (stereo unspecified),inactive,–
CC1(C)Cc2c(C#N)c(SCC(=O)O)nc(N3CCOCC3)c2CO1,inactive,–
Cc1cccc(C(=O)NC(=S)NNC(=O)c2ccc(Cl)cc2)c1,inactive,–
C=CCN(c1ccccc1OC)S(=O)(=O)c1cccc(C(=O)OCC(=O)N2CC(C)OC(C)C2)c1 (stereo unspecified),inactive,–
O=S(=O)(Nc1ccccc1Cl)c1ccc(-c2ccccn2)s1,"inconclusive: 28.2 µM [inhibitor, single point]",–
Cc1ccc(S(=O)(=O)N2CCC(C(=O)NCC3CCCCC3)CC2)cc1,"inconclusive: 11.2 µM [inhibitor, partial curve]",–
C=CCn1c(COc2ccccc2OC)nc2ccccc21,"inconclusive: 14.1 µM [inhibitor, partial curve, poor fit]",–
CN(CC(=O)Nc1ccccc1C(F)(F)F)C(=O)COc1ccccc1Cc1ccccc1,"inconclusive: 10 µM [inhibitor, partial curve, poor fit]",–

Structure (SMILES),Potency,"activity change, negative = inhibition"
Cc1cc(C)c(NC(=O)CS(=O)CC(=O)NCCN2CCCCCC2)c(C)c1 (stereo unspecified),"inconclusive: 35.5 µM [inhibitor, partial curve, poor fit]",–
Clc1cccc(-c2cc3nc4c(c(NCc5ccco5)n3n2)CCCC4)c1,"inconclusive: 20 µM [inhibitor, single point]",–
Cc1cc2nc(C(C)(C)C)c(Cc3cccc(Cl)c3)n2c(C)c1Br,"inconclusive: 22.4 µM [inhibitor, single point]",–
COc1cc(OC)c(OC)cc1CN1CCN(Cc2ccc(SC)cc2)CC1,"inconclusive: 11.2 µM [inhibitor, partial curve]",–
C#Cc1cccc(C(=O)N2CCCC(CCC(=O)NCc3ccccc3F)C2)c1 (stereo unspecified),"inconclusive: 10 µM [inhibitor, single point]",–
O=C(COc1ccc(Br)cc1)N1CCc2ccccc2C1,"inconclusive: 28.2 µM [inhibitor, single point]",–
O=C(O)c1cccc2cccnc12,inactive,–
Cc1oc2c(c1C(=O)c1ccc(Cl)cc1)C(=O)C(=O)c1ccccc1-2,inactive,–
Cc1cc(C)c(S(=O)(=O)Nc2ccc(Cl)cn2)c(C)c1,"inconclusive: 20 µM [inhibitor, single point]",–
CC1CCc2sc(C(=O)N/N=C/c3ccc(O)cc3)cc2C1 (stereo unspecified),"inconclusive: 31.6 µM [inhibitor, partial curve, poor fit]",–
Cc1ccc(-c2c(C(=O)N/N=C/c3sccc3C)nnn2-c2nonc2N)cc1,"inconclusive: 11.2 µM [inhibitor, partial curve, poor fit]",–
CCOC(=O)c1[nH]c2ccc(OCC)cc2c1NC(=O)CN1CCCC(C)C1 (stereo unspecified),"inconclusive: 10 µM [inhibitor, partial curve, poor fit]",–
Cc1c(NC(=O)CCCOc2ccccc2)cccc1[N+](=O)[O-],"inconclusive: 28.2 µM [inhibitor, single point]",–
O=C(Nc1cccc(C(F)(F)F)c1)NC1CCCCC1,"inconclusive: 7.94 µM [inhibitor, partial curve, poor fit]",–
COC(=O)c1sccc1S(=O)(=O)N(CC(=O)Nc1ccc(C)cc1)c1ccccc1,"inconclusive: 14.1 µM [inhibitor, single point]",–
COC(=O)[C@]12CCCCC=C1N(CCC1=CCCCC1)C(=O)[C@H](CC(=O)NCc1cccs1)C2,"inconclusive: 28.2 µM [inhibitor, single point]",–
COc1ccc(CN(C)Cc2cc(=O)oc3cc(C)c(C(C)C)cc23)cc1OC,"inconclusive: 10 µM [inhibitor, partial curve, poor fit]",–
COc1ccccc1N1CCN(C(=O)CCn2cnc3onc(-c4ccc(F)cc4)c3c2=O)CC1,inactive,–
COCCCNC(=O)c1ccc2c(=O)n(C3CCCC3)c(=S)[nH]c2c1,inactive,–
C=CCn1cnc2scc(-c3ccc(C)c(C)c3)c2c1=O,"inconclusive: 22.4 µM [inhibitor, single point]",–
O=C(C(Sc1ccccc1)c1ccccc1)N1CCN(c2ccccc2)CC1 (stereo unspecified),"inconclusive: 2.82 µM [inhibitor, partial curve, poor fit]",–
Cc1cccc(NC(=O)C(c2ccccc2)N2Cc3ccccc3C2=O)c1C (stereo unspecified),"inconclusive: 17.8 µM [inhibitor, partial curve, poor fit]",–

# Reference: PubChem BioAssay AID624417 (National Center for Advancing Translational Sciences (NCATS), 2012)
